Test results as given in the DeepSol protein solubility set.

Assay: soluble on expression in E. coli; label from the status in PepcDB or PDB records

Row | Sequence | soluble on expression in E. coli
1 | MSLKRAFILVLDSFGIGATADAQAFGDVGSDTLGHIADQCAQGLADNAERKGALQLPNLSKLGLAMAHKESTGRFAPGLDERADIIGAYAHAAELSSGKDTPSGHWEIAGVPVLFEWGYFSDKQNSFPKELTDRILARAGLDGFLGNCHASGTQVLDDLGEEHMRTGKPIFYTSADSVFQIACHEETFGLDRLLELCQIAREELADYNIGRVIARPFVGPGKGQFARTGNRRDLSVEPPSATVLQKLVEEKQGRVVSIGKIADIYAYCGITDKVKATGIPDLFEATLEQIKQAGDNTIVFTNFVDFDSAYGHRRDVAGYAAALEYFDKRLPEVLELMQEDDILILTADHGCDPTWPGTDHTREHIPVLVYGKKVAPGSLGRRDTFADIGQTLASYFGTSPMDYGKNFLEGHHHHHH | not soluble
2 | MSLSSTVSTLYGEVEPSLLEIAKQIKLLICDVDGVFSDGLIYMGNQGEELKTFHTRDGYGVKALMNAGIEIAIITGRRSQIVENRMKALGISLIYQGQDDKVQAYYDICQKLAIAPEQTGYIGDDLIDWPVMEKVALRVCVADGHPLLAQRANYVTHIKGGHGAVREVCDLILQARNELDVHKGLSLEGHHHHHH | soluble
